# Source: PubChem BioAssay AID2675 (National Center for Advancing Translational Sciences (NCATS), 2010)
# Several values for one entry are separate records, joined by “and”; a condition that tells them apart may be missing. Equal entries are not always repeated. About 100 (0.036%) of roughly 280,000 compounds were called active. The shares of active, inactive and inconclusive entries below differ from those in the screen. Calls follow the shape of the dose curve; as a rule, active = well fitted inhibition curve with a large enough effect in the signal ratio, with a control signal flat (not every such curve was filed as active); inconclusive = small, poorly fitted or top-dose-only effect, or effect the other way, or a change in a side signal; inactive = no such curve, though single readings can be large or run the other way; the % refers to the signal ratio. Potencies beside an inconclusive call are fits to weak or partial responses and may not hold up. A note “side channel” means that the fit belongs to a control or component signal, not to the main read-out.
# Target: Muscleblind-like protein 1 (Homo sapiens) (UniProt Q9NR56)
# UniProt Q9NR56, sequence (Q9NR56 whole entry, looked up): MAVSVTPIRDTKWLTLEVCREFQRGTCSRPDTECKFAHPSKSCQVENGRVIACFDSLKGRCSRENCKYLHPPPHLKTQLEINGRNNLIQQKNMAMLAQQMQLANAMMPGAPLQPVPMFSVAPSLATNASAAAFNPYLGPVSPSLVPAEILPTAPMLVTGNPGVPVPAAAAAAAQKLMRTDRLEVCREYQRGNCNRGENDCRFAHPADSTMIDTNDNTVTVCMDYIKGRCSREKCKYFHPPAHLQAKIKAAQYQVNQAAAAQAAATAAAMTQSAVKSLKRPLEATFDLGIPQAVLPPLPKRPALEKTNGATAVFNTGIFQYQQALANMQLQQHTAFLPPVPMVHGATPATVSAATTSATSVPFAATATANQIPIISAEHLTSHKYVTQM
# Assay: qHTS Assay for Inhibitors of MBNL1-poly(CUG) RNA binding
# Settings: TR-FRET MBNL1-His/biotin-(CUG)12 binding, 665/545 ratio; series mostly up to 57.5 µM
# Procedure, shortened: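 His-tagged MBNL1 binding to biotinylated (CUG)12 RNA was measured by TR-FRET using terbium anti-His antibody (0.055 ng/ul final) and streptavidin-XL665 (5 nM final). Compounds were titrated 92 nM to 58 uM; 60 min at room temperature.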
# Potency is read from the fitted curve at half-maximal effect; tags tell the direction and shape of the fitted curve or compound fluorescence and quenching.
row,Compound,Potency
1,CC(CCc1ccccc1)NCC(O)COc1ccccc1 (stereo unspecified),inactive
2,COc1cccc(C(=O)NCC(=O)N/N=C/c2ccc3c(c2)OCO3)c1,"inconclusive: 31.6 µM [quencher, side channel, single point]"
3,CN1CCN(NC(=O)c2cc([N+](=O)[O-])cc([N+](=O)[O-])c2)CC1,"inconclusive: 7.94 µM [quencher, side channel, partial curve]"
4,COC(=O)c1cnn2c(C(F)(F)F)cc(-c3ccco3)nc12,"inconclusive: 25.1 µM [quencher, single point]"
5,CCOC(=O)C(=O)c1c(-c2ccccc2)nc2ccccn12,"inconclusive: 28.2 µM [quencher, side channel, single point]"
6,CC(=O)Nc1ccc(S(=O)(=O)N2CCC(C(=O)NC3CCCC3)CC2)cc1,inactive
7,O=C1CS/C(=C\[N+](=O)[O-])N1c1ccccc1,"inconclusive: 17.8 µM [quencher, side channel, partial curve]"
8,CCCOc1ccccc1N1C(=O)CC(N(O)c2ccccc2)C1=O (stereo unspecified),inactive
9,O=C(Nc1nc(-c2ccccn2)cs1)c1cc(Cl)ccc1[N+](=O)[O-],"inconclusive: 25.1 µM [quencher, side channel, single point]"
10,CCOc1ccc2nc(COC(=O)c3ccco3)c(C(C)=O)[n+]([O-])c2c1,"inconclusive: 20 µM [quencher, partial curve]"
11,CCOCc1nnc(NC(=O)c2cc(Cl)ccc2OC)s1,inactive
12,COc1ccccc1N=NC1=C(O)CC(C)(C)CC1=O,"inconclusive: 1.41 µM [quencher, side channel, full curve]"
13,CNc1nn(-c2cccc(Cl)c2)nc1N,inactive
14,COc1ccc2oc(=O)c(C(=O)N3CCN(c4ccc(F)cc4)CC3)cc2c1,"inconclusive: 39.8 µM [quencher, side channel, single point]"
15,CCOC(=O)CCn1cnc2ccc([N+](=O)[O-])cc2c1=O,"inconclusive: 15.8 µM [quencher, side channel, partial curve]"
16,COc1cc([N+](=O)[O-])ccc1NC(=S)NCc1ccccn1,"inconclusive: 2.24 µM [activator, single point]"
17,Cc1nc(N2CCN(Cc3ccc4c(c3)OCO4)CC2)c2cc(-c3ccccc3)sc2n1,inactive
18,CC(C)C1N=C2c3ccccc3N=C(SCC#N)N2C1=O (stereo unspecified),inactive
19,N=c1c(C(=O)NCc2ccccc2)cc2c(=O)n3ccccc3nc2n1Cc1ccco1,"inconclusive: 14.1 µM [quencher, side channel, partial curve]"
20,Cc1oc(/C=N/NC(=O)CN(c2ccccc2Cl)S(C)(=O)=O)cc1Br,"inconclusive: 1.26 µM [quencher, side channel, partial curve]"
21,COC(=O)c1nc(NC(=O)c2cc(OC)c(OC)c(OC)c2)n[nH]1,inactive
22,COc1cccc(C(=O)c2cc3ccc(O)cc3oc2=O)c1,"inconclusive: 28.2 µM [quencher, side channel, partial curve]"

row,Compound,Potency
1,Cc1cc(C)c2oc(-c3ccc(C)c(NC(=S)NC(=O)c4cccs4)c3)nc2c1,inactive
2,CCOC(=O)CCS(=O)(=O)c1nc(-c2ccccc2)cc(C(F)(F)F)n1,inactive
3,FC(F)(F)c1ccccc1NC(=S)Nc1ccccc1,inactive
4,COCCCN=C(c1ccco1)n1c(=S)nc(-c2ccco2)n(CCCOC)c1=S,inactive
5,COC(=O)/C(=C/Nc1cccc2ccccc12)[N+](=O)[O-],"inconclusive: 11.2 µM [quencher, side channel, partial curve]"
6,COc1ccc(N(C(=O)C(C)C)S(=O)(=O)c2cccc([N+](=O)[O-])c2)cc1,"inconclusive: 15.8 µM [quencher, partial curve]"
7,O=C(N=Nc1c(O)[nH]c2ccccc12)c1ccc2c(c1)OCO2,"inconclusive: 1.12 µM [quencher, side channel, full curve, poor fit]"
8,Cn1ccnc1Sc1cc(Cl)ccc1[N+](=O)[O-],"inconclusive: 14.1 µM [quencher, partial curve]"
9,O=[N+]([O-])c1cccc2cn[nH]c12,"inconclusive: 7.94 µM [quencher, side channel, partial curve] and inconclusive: 11.2 µM [quencher, side channel, partial curve]"
10,Cc1nc(-c2ccc3c(c2)OCO3)cs1,inactive
11,O=C(COC(=O)c1cc([N+](=O)[O-])ccc1NCc1ccccc1)NCc1ccccc1Cl,"inconclusive: 0.141 µM [quencher, side channel, full curve, poor fit]"
12,CC(=O)Nc1ccc2c(c1)n(C)c(=O)n2C,inactive
13,COc1ccc(C(=O)CSc2ccc(-c3ccccc3)nn2)cc1,inactive
14,COCc1cc(/C=N\NC(=O)c2ccc(Cl)cc2)ccc1OC,"inconclusive: 39.8 µM [quencher, side channel, single point]"
15,C=CCN1C=C2C(=O)C(C)(OC(=O)CCC(=O)OC)C(=O)C=C2C=C1C1CC1 (stereo unspecified),"inconclusive: 39.8 µM [quencher, single point]"
16,Cc1c(N2C(=O)CSC2c2ccc([N+](=O)[O-])cc2)c(=O)n(-c2ccccc2)n1C (stereo unspecified),"inconclusive: 10 µM [quencher, side channel, partial curve]"
17,CC(=O)NC1=NN(C(C)=O)C(C)(CS(=O)(=O)c2ccc(Cl)cc2)S1 (stereo unspecified),"inconclusive: 7.94 µM [quencher, side channel, single point]"
18,O=[N+]([O-])c1ccc(-c2ccc(/C=N/c3c(-c4ccco4)nc4ccccn34)o2)c(Cl)c1,"inconclusive: 8.91 µM [quencher, side channel, full curve, poor fit]"
19,CC(/C=C/c1ccccc1)=N\NC(N)=S,inactive
20,O=C(O)c1ccc(NC(CSCc2ccccc2F)C(=O)O)c([N+](=O)[O-])c1 (stereo unspecified),"inconclusive: 15.8 µM [quencher, partial curve]"
21,CCOc1c2ccc(C(=O)NCc3ccc(OC)cc3)cc2nn1CCOC,"inconclusive: 25.1 µM [quencher, side channel, single point]"
22,Cc1ccccc1N1CCN(C(=S)c2ccc([N+](=O)[O-])cc2)CC1,"inconclusive: 10 µM [quencher, side channel, partial curve]"

row,Compound,Potency
1,COC(=O)C(=Nc1ccccc1)/C(C(=O)C(=O)N(C)c1ccccc1)=C(\O)c1ccccc1,inactive
2,Cc1cc(O)ccc1-c1cnc2ccccc2n1,"inconclusive: 22.4 µM [quencher, side channel, partial curve]"
3,Oc1ccc(CCNc2c3ccccc3nc3ccccc23)cc1O,"inconclusive: 15.8 µM [quencher, side channel, partial curve]"
4,COc1cc([C@@H]2[C@H]3CN(C)CC=C3C(C#N)=C(N)C2(C#N)C#N)cc2c1OCO2,"inconclusive: 22.4 µM [quencher, side channel, partial curve]"
5,CCN1CN(CCc2ccccc2)CNC1=S,inactive
6,Cc1cc(NC(=O)Nc2cccc(C(F)(F)F)c2)n(C)n1,"inconclusive: 126 µM [inhibitor, partial curve]"
7,Cc1ccccc1N(C(=O)c1csnn1)C(C(=O)NC1CCCCC1)c1ccncc1 (stereo unspecified),inactive
8,Cc1nonc1OC(C)CNCCNc1ccc([N+](=O)[O-])cc1 (stereo unspecified),"inconclusive: 14.1 µM [quencher, side channel, partial curve]"
9,Cc1ccc(-n2ccc(=O)c(C(=O)Nc3ccc(S(=O)(=O)Nc4nccs4)cc3)n2)cc1,"inconclusive: 15.8 µM [quencher, side channel, partial curve]"
10,Cc1ccc(Nc2cc(C)nn2-c2nc(C)cc(=O)[nH]2)cc1,inactive
11,CC1(C)Cc2c(sc3nc(-c4cccs4)n(N)c(=O)c23)CO1,"inconclusive: 31.6 µM [quencher, side channel, single point]"
12,O=C(Nc1ccccc1Cl)C1CCN(S(=O)(=O)c2cccc3nonc23)CC1,"inconclusive: 2.82 µM [quencher, side channel, full curve]"
13,O=C(Nc1ccccc1C(=O)N/N=C/c1ccco1)c1ccccc1,inactive
14,C=CCn1c(-c2cc(OC)cc(OC)c2)n[nH]c1=S,inactive
15,NC(=S)Cc1ccccc1Cl,inactive
16,O=C(/C=C/c1ccc([N+](=O)[O-])o1)NNC(=O)c1ccc(F)cc1,"inconclusive: 14.1 µM [quencher, side channel, partial curve]"
17,CN1C2CCC1/C(=C/c1cccn1C)C(=O)/C2=C\c1cccn1C,"inconclusive: 10 µM [quencher, side channel, partial curve]"
18,COc1cc(/C=N/Nc2nn3cnnc3c3ccccc23)cc(OC)c1OC,"inconclusive: 14.1 µM [quencher, side channel, partial curve]"
19,O=C(NCCc1ccccc1)c1ccc2c(c1)OCCCO2,inactive
20,COc1ccccc1NC(=O)c1ccc2nsnc2c1,"inconclusive: 12.6 µM [quencher, side channel, partial curve]"
21,CCOC(=O)C1CCN(c2ccc(C(N)=O)cc2[N+](=O)[O-])CC1,"inconclusive: 14.1 µM [activator, partial curve]"
22,O=C(c1ccc2ccccc2c1)C1CCCN(C(=O)CCn2cnnn2)C1 (stereo unspecified),"inconclusive: 8.91 µM [quencher, side channel, full curve]"
